In all, about 33,000 sequences were measured (“E-score (-0.5 to 0.5)”: median about -0.053, highest 2% from about 0.37 on). The list shows a part of the results.
These sequences were tested against Hap1 (UniProt P0CE41) (assay: PBM E-score (8-mer binding enrichment) (E-score (-0.5 to 0.5)); higher = stronger / more preferred TF binding; most listed sequences are background and not binding sites). Details: protein concentration: 200 nM; construct: GST-DNA-binding domain.
Summary of the method: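 GST-tagged yeast TFs (full-length or DNA-binding domain) were made by PURExpress in vitro transcription/translation and applied at about 100-200 nM to universal all-10-mer Agilent arrays. The arrays were made double-stranded by primer extension, on fresh or once-stripped slides. Bound protein was detected with fluorescent anti-GST, and scans were normalised with masliner. Each ungapped eight-base word, pooled with its reverse complement, received an E-score (modified Wilcoxon-Mann-Whitney statistic) from the Universal PBM Analysis Suite.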

Sequence of UniProt P0CE41 (P0CE41 whole entry, the tested form may be a part): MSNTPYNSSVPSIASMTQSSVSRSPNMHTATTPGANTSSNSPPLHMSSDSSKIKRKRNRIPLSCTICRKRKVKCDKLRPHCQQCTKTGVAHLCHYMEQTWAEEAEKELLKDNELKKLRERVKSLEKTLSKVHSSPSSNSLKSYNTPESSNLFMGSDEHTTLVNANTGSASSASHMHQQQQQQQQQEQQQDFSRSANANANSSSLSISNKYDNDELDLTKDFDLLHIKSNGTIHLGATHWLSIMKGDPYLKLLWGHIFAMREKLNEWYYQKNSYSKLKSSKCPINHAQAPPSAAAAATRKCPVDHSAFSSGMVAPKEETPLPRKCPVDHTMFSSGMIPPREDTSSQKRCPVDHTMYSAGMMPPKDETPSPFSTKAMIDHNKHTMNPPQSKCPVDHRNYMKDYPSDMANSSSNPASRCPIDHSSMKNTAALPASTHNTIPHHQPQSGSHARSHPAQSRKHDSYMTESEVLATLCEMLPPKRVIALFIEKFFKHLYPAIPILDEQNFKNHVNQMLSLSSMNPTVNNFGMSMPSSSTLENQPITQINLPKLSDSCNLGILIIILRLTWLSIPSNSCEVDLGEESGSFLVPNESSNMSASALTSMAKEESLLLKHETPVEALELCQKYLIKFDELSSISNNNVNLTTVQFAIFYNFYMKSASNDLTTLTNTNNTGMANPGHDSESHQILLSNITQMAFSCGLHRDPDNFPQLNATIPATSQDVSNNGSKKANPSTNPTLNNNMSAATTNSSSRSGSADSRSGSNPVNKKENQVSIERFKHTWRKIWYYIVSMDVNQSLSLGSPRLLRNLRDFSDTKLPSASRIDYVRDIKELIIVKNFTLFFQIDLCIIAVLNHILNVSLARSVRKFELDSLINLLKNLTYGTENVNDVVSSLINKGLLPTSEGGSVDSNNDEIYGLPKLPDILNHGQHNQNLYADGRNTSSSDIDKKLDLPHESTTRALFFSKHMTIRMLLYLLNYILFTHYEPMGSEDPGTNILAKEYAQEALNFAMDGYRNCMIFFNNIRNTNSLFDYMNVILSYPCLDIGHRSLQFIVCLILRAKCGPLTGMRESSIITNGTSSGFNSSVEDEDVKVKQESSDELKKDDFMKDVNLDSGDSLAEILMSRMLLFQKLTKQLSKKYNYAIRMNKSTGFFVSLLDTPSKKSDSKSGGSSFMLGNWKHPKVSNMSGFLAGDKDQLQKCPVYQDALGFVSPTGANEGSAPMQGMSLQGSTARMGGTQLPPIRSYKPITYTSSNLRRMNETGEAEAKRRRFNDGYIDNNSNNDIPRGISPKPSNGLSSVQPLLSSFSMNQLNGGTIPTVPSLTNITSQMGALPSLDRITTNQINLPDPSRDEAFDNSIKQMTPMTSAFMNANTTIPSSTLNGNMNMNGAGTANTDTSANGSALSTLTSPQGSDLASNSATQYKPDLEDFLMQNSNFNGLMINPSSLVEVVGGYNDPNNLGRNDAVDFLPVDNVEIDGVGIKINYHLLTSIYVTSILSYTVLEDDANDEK

| Sequence | PBM E-score |
| --- | --- |
| AGGAATCA | -0.0386 |
| AATTCTAT | -0.165 |
| CCTTTGCG | 0.0464 |
| GAGTCGTA | -0.155 |
| ACTGAATC | -0.173 |
| GGCCCGTA | 0.281 |
| GTTGTGTA | -0.218 |
| CTTCACCA | -0.154 |
| ACACTCAG | -0.208 |
| AGGAAATA | 0.155 |
| ACAGTGTC | -0.16 |
| TGTCAAAA | -0.0782 |
| AATTGTAT | -0.0787 |
| ATTTTGGA | 0.147 |
| CACTTCCC | -0.0515 |
| AAAAAAGG | 0.0917 |
| CTCTAGGA | -0.314 |
| CTGAAATC | 0.0978 |
| GAAAATCA | -0.0795 |
| CAGGACAA | 0.0261 |
| CCGTACGA | 0.105 |
| CCGGCCGC | 0.299 |
| CCCACGTA | -0.202 |
| AGTCATGC | -0.182 |
| ATATTTAG | -0.0881 |

| Sequence | PBM E-score |
| --- | --- |
| GATCCGGA | 0.395 |
| ATAGCATC | -0.177 |
| AATTTCGC | 0.22 |
| ATACGGCG | 0.144 |
| CGCCAGAA | -0.0527 |
| CATTCCAA | -0.225 |
| TTAGGAAA | -0.141 |
| CTAGAAGA | -0.0325 |
| ACCGGCCC | 0.329 |
| AAGCTCCA | -0.157 |
| TGGGGCAA | -0.282 |
| AGGAATAC | -0.116 |
| CGGGTATC | 0.247 |
| GCGGTCGA | 0.163 |
| ATACACAG | -0.146 |
| GGGTTATA | 0.0789 |
| CATAAAGC | -0.188 |
| CGGCCACC | 0.251 |
| TAACCCCA | 0.135 |
| GCATCGAC | -0.0733 |
| CCAATGAC | -0.211 |
| GATCGTTA | -0.0222 |
| ATCAGCTG | -0.257 |
| CCAGGCGA | -0.174 |
| CTTCCGAA | 0.324 |

| Sequence | PBM E-score |
| --- | --- |
| TCCTAAAA | -0.112 |
| CACCAGAA | -0.265 |
| AGGACACA | -0.0409 |
| GATGACGA | -0.288 |
| AATTGCTG | -0.067 |
| ATACCAAC | 0.0295 |
| ACACGGCT | 0.146 |
| CCCTTGCA | -0.16 |
| GGAGACGA | 0.128 |
| CATACGCG | 0.0615 |
| GCCATGAA | -0.231 |
| ATGCGGCC | 0.101 |
| GTCAGACA | -0.0693 |
| AGTTGCTG | -0.0744 |
| CATACTCC | 0.144 |
| AAGATACG | -0.0621 |
| CGCATAAG | 0.143 |
| GCTGAAAC | 0.0233 |
| AATGCTGG | -0.0802 |
| ACGGGGCA | -0.00925 |
| AGACTCGC | -0.0685 |
| ATGAGTCG | -0.075 |
| GACAGCTA | -0.249 |
| CCCGCGGA | 0.322 |
| ATTCTGGG | -0.223 |

| Sequence | PBM E-score |
| --- | --- |
| AAACCAAG | -0.0855 |
| CTCCTCCC | -0.144 |
| AATTGCTA | -0.106 |
| ACCCCCGT | 0.126 |
| CCTTACGC | -0.0369 |
| AATTACTA | -0.00109 |
| CATATTAC | 0.152 |
| CATTAAGA | -0.202 |
| AGCAGCCC | -0.14 |
| ACATAAAG | -0.0498 |
| GGGCTCTA | 0.023 |
| TATGCAGA | -0.201 |
| ACAGGTTC | -0.216 |
| AAGTAGGA | -0.375 |
| CGATACCG | 0.309 |
| CCCATCGA | -0.117 |
| GTAAGTGA | -0.0133 |
| CGATATGA | 0.213 |
| ACTTGCTA | -0.197 |
| GGTCGGAA | 0.265 |
| AGGACGTA | 0.00968 |
| ATGCACAG | -0.217 |
| AAAACAGG | -0.36 |
| CAGTCAAC | -0.21 |
| CAGTTTTC | -0.0267 |

| Sequence | PBM E-score |
| --- | --- |
| AGCCTGAG | -0.365 |
| AATGTCAA | -0.127 |
| AGACAACC | 0.0489 |
| CATGTGGA | -0.207 |
| ATCACACC | 0.169 |
| GGGCTCAC | -0.0345 |
| ACCAGGTC | 0.0272 |
| AGACGAAC | -0.273 |
| CTCTACAC | -0.029 |
| ATCCGGGA | 0.239 |
| GCTCTGAA | -0.135 |
| ATAGTCAC | -0.18 |
| AGTGTCCG | 0.258 |
| AGGATATC | 0.155 |
| AAGGTCCC | -0.253 |
| ACGGTAAC | 0.245 |
| ACGAATCT | 0.0898 |
| GCCACAAA | 0.0371 |
| CAGACCGA | 0.278 |
| CTTGATCA | -0.0583 |
| CGATTCAA | -0.0364 |
| CCTATGTA | -0.201 |
| AGCAGGTA | -0.123 |
| GTATAGAC | -0.156 |
| CAAACCGG | 0.236 |

| Sequence | PBM E-score |
| --- | --- |
| CGCAAACG | -0.00497 |
| ACCAAGGC | -0.152 |
| CGGCGCTA | 0.356 |
| GCAGATGA | -0.18 |
| ATTAAATA | 0.131 |
| ATACAGGC | -0.0909 |
| CCTGCAAC | -0.289 |
| ATTATCAG | -0.106 |
| AGATGTAC | -0.243 |
| AGGGTAAC | -0.137 |
| CGATGAGA | 0.056 |
| GCTTGGAA | -0.193 |
| AGGTAATG | 0.104 |
| AATTTAAA | -0.0116 |
| CTCGTGAC | -0.151 |
| ACGACCAA | -0.162 |
| CACAGAGG | -0.221 |
| GGACCTAC | 0.26 |
| ACACTTCG | -0.158 |
| CCTGGCCG | 0.0658 |
| AAATTTCT | 0.0196 |
| CCTATGCA | -0.262 |
| GCTAGGAA | -0.258 |
| CCTACGCG | 0.0464 |
| AGTGCTCG | -0.122 |

| Sequence | PBM E-score |
| --- | --- |
| CCAACAGA | -0.15 |
| CACCTACC | -0.171 |
| CAGAAAAA | -0.0996 |
| CGGGTTTA | 0.474 |
| AGCGGGGA | 0.0437 |
| ACACCGCT | -0.00445 |
| CATTCTAG | -0.409 |
| ATCTCGAG | -0.0933 |
| GGGCTAAA | 0.131 |
| ACACGTAC | -0.229 |
| CAACGGTC | 0.209 |
| AGAGGCGA | -0.132 |
| AGAGGCAA | -0.0652 |
| GAGCAATC | -0.00019 |
| GGAGGCCA | 0.0209 |
| GCCCCATA | -0.00491 |
| ACCTTCTA | -0.239 |
| CTTAGAGC | 0.00024 |
| AGCTTCCA | -0.074 |
| ACAGAGGT | -0.234 |
| CGTTGAAC | 0.00776 |
| GGGTGGTA | 0.0754 |

From the supplement of paper PMC3334620
